# In ChEMBL document CHEMBL4888484, “Replenishing the malaria drug discovery pipeline: Screening and hit evaluation of the MMV Hit Generation Library 1 (HGL1) against asexual blood stage Plasmodium falciparum ,using a nano luciferase reporter read-out” (2022):
# Among all 150,000 compounds or so, about 540 (0.36%) showed an effect of 50% or more. The list shows a part of the results.
# Tested on: Plasmodium falciparum
# Test: Primary screen in NF54 nanoGlo assay, in single point, at 2uM, 72h; a lower Z score goes with more inhibition
# Format: functional, Erythrocyte
# Conditions: timepoint 72 hour
SMILES,% Inhibition [%],Z score
O=C(NCc1nccs1)C1CCCC2CCCN21 (configuration not stated),-11,1.55
CCOC(CN1CCC2OCCCC2C1)OCC (configuration not stated),-9,1.03
FC(F)(F)c1ccc2c(N3C[C@@H]4C[C@H]3CN4)nccc2c1,-15,1.51
NC(=O)COc1ccc(-c2cccc3c2CCNC3)cc1,-4,0.54
COC(=O)[C@H](Cc1ccccc1)NC(=O)c1cnn(Cc2ccccc2)c1,-14,1.56
C[C@@H](Cc1cccc(Cl)c1)NC(=O)CCN1C(=O)CCC1=O,4,-0.57
COCc1nn(CCc2cc(Cl)cc(Cl)c2)c(=O)o1,-10,1.23
CCc1nn(Cc2ccccc2)c(CC)c1C(=O)NC1CC1,-6,0.53
CC1C2CCCN2CCN1Cc1cccc(O)c1 (configuration not stated),0,0.04
O=C(c1ccc2c(c1)OCO2)N1CC(C(=O)N2CCC3(CC2)OCCO3)C1,-10,1.55
CC(C)n1c(=O)oc2cc(-c3noc(-c4nn(C)c5ccccc45)n3)ccc21,-30,2.91
COCCn1cc(C(=O)N[C@H]2C[C@@](CO)(c3ccccc3)C2)nn1,1,-0.11
O=C(Cc1cccc(Cl)c1)N1C[C@@H]2CC[C@H]1CN(Cc1cscn1)C2,-11,1.11
C[C@@H](c1nnc(-c2ccccc2F)s1)N1CCC(c2c[nH]c3ccccc23)CC1,0,-0.01
CC(C)[C@H](NC(=O)COCC1CC1)c1ccc2[nH]c(=O)oc2c1,-1,0.17
Cc1cc(C)c2[nH]c(C)c(CCN3CC[C@H](O)C3)c2c1,-18,2.77
C[C@@H](Cn1cccn1)C(=O)NCCc1c[nH]cn1,-8,0.84
CC[C@H]1C[N@@]2CC[C@H]1C[C@@H]2COC(=O)Nc1ccccc1,45,-5.09
CN1C(=O)N(C)C(=O)C(Cc2ccccn2)(Cc2ccccn2)C1=O,6,-0.93
CC(C)(N)Cc1ccc(Br)cc1,-2,0.34
Cc1nc(N)nc(N2CCC3(CCN(C)C3)CC2)c1Cl,5,-0.68
N#Cc1cccnc1NCC12CCCN(CCC1)C2,-11,1.41

SMILES,% Inhibition [%],Z score
CC(C)COC(=O)C[C@@H](CN)c1ccccc1,-7,1.33
O=C(Cc1csc(-c2ccccc2)n1)N1CCN2CCC1C2 (configuration not stated),-1,0.22
Cc1cc(Br)ccc1CNC(=O)c1cn(C2CCNCC2)nn1,-8,1.14
O=C1CO[C@H]2CN(Cc3ccco3)C[C@H]2N1Cc1cccnc1,32,-3.56
O=C(c1cn(Cc2ccc(Cl)cc2)nn1)N(Cc1ccccc1)CC1CC1,-4,0.77
C1CCCC(NCCCOC2CCCC2)CC1,-13,2.38
O=C(Nc1ccc(=O)n2c1[C@@H]1C[C@@H](CN(S(=O)(=O)c3ccccc3)C1)C2)c1cncnc1,-3,0.66
O=c1ccc(C2CCCCC2)c2n1C[C@H]1C[C@@H]2CN(S(=O)(=O)c2ccccc2)C1,-6,0.89
CN(CC(=O)N1CCCCCC1)S(=O)(=O)c1ccc2[nH]c(=O)oc2c1,-3,0.45
CCN1CCC2CCC(C1)N2C(=O)Nc1ccnc(OC)n1 (configuration not stated),-3,0.49
c1cc2oc(CN3CC4(CCCOC4)C3)cc2cn1,-2,0.17
CCOCc1nc(-c2c(C)ncc3c2CCN(c2ccnc(N)n2)C3)no1,-3,0.41
O=c1c2ccccc2nc(Cc2ccccc2)n1-c1c(Cl)cccc1Cl,-4,0.57
CCC(=O)NCc1ccccc1C1=CCNCC1,3,-0.36
NCCc1cc(Br)ccc1F,-3,0.33
C1=CC2(CCNCC2)Oc2ccccc21,0,0.06
C[C@@H]1CN(C2CCOCC2)CCN1C(=O)Cc1cc(F)ccc1F,-7,0.88
CC(F)(F)CN1CCN(C(=O)Cc2ccco2)CC1,-4,0.6
C[C@@](CO)(Cc1ccccc1F)NCc1nc(C(F)F)no1,-3,0.48
C[C@@H](Cc1ccsc1)N(C)Cc1cnc2ccc(C#N)cn12,-10,1.9
COc1ccccc1[C@H]1CN(c2noc(C)n2)[C@@H]2C3CCN(CC3)[C@H]12,-3,0.33
COC(=O)c1[nH]c(C)cc1NS(=O)(=O)c1ccc(S(=O)(=O)F)cc1,0,-0.06

SMILES,% Inhibition [%],Z score
c1cc(N2CC[C@@]3(CCCNC3)C2)c2sccc2n1,98,-16.03
Cc1ncccc1CNC(=O)C1NCCC2CCCCC21 (configuration not stated),1,-0.1
CN1C[C@@]2(Cc3c1ccc1ccccc31)C(=O)NC(=O)N(c1ccc(F)cc1)C2=O,27,-3.04
O=C(c1ccc(O)cc1)N1C[C@@H](c2cccc(F)c2F)[C@@H]2[C@H]1C1CCN2CC1,2,-0.38
Fc1cnc(N2C[C@@H](c3ccccc3)[C@@H]3[C@H]2C2CCN3CC2)nc1,-13,2.17
COc1ccccc1C[C@H](C)N(C)C(=O)CN1C(=O)OC(C)(C)C1=O,-18,1.82
c1ccc2c(c1)CCC[C@@]21CCCNC1,-10,1.08
CCCn1nc(C(=O)N2CCC(Nc3ccccc3)CC2)ccc1=O,-1,0.07
Cc1cccc(CN2CCC[C@H](C(=O)c3ccc(Cl)cc3)C2)n1,-12,1.61
Cc1ccc(NC(=O)Nc2ccc(C)n(CC(=O)N3CCC4(CC3)OCCO4)c2=O)cc1,12,-1.67
Cc1ccc([C@H](C)n2ccnc2-c2coc(C)n2)cn1,-3,0.5
COc1ccc(N2C[C@H]2c2ccncc2)cc1,45,-5.81
Cc1ccc(S(=O)(=O)N(CCS(=O)(=O)F)CCS(=O)(=O)F)c(C)c1,-20,3.28
O=C(CN1CCCCCC1)N1CCC2(CC1)OCCO2,-9,1.24
COc1ccc(Cc2nc(-c3ccc4c(c3)oc(=O)n4C)no2)cc1Cl,2,-0.21
COc1ccccc1NC(=O)N1C[C@H]2COc3ccccc3C[C@@]2(C(=O)O)C1,-4,0.47
O[C@@H]1C[C@H]2CN(CCCc3cccnc3)Cc3cccnc3N2C1,3,-0.39
CCc1ccc(C(=O)Nc2cnc3c(c2)CNCC3)o1,-13,1.34
Cc1ncccc1CN1C[C@H]2CCC[C@@H](C2)C1,-4,0.87
CCCS(=O)(=O)NC[C@H]1C[C@@H]2CCN1C[C@@H]2c1cc(C(CC)CC)nc(-c2ccncc2)n1,35,-3.34
Cc1nnc(CN2C(C)CC3CCCCC32)n1C (configuration not stated),-5,0.51
COc1ccc(N2C(=O)NC(=O)C3(Cc4ccccc4N4CCOCC43)C2=O)cc1 (configuration not stated),-11,1.69

SMILES,% Inhibition [%],Z score
Cn1cc(C(=O)Cc2ccccc2)c2ccccc21,-18,2.34
CC(=O)N[C@H]1C[C@H]2CN(Cc3c(C)noc3C)[C@@H](C)C(=O)N2C1,-16,1.45
O=C(O)[C@H](C1CC1)N1CCN(C(=O)COc2ccc(Br)cc2)CC1,-8,1.02
O=C1CCN(C(=O)c2ccc(Cl)c(Cl)c2)CC1,38,-1.21
O=C(COC1CCCCC1)N1CCC2(CC1)OCCO2,-13,1.41
CCc1cc(N2C[C@@H](c3cccc(OC)c3)[C@@H]3[C@H]2C2CCN3CC2)ncn1,1,-0.11
O=C(CCN1C[C@H]2c3ccccc3OC[C@@]2(C(=O)O)C1)NC1CCCCC1,-3,0.44
O=C(Cn1ccc2ccccc2c1=O)NC12CCCN(CC1)C2 (configuration not stated),-10,1.73
CCN1CC[C@H]2OCCN(c3nc(C)nc4[nH]ccc34)[C@H]2C1,-1,0.13
COc1ccc2c(ccn2CC(=O)N2CCC3(CC2)OCCO3)c1,1,-0.16
CN1CCCC2CN(c3ccc(Br)cn3)CCC21 (configuration not stated),-16,1.83
COCc1cc(CN[C@@H](C)Cc2ccccc2F)n[nH]1,25,-3.12
COc1nc(C)cc(C)c1Cn1cnc2c(cnn2C)c1=O,-12,1.47
O=C(C[C@H]1CCCO1)N1CCC(N(C(=O)C(F)(F)F)c2cccnc2)CC1,4,-0.57
Cc1cc(C)c(CNc2ncccc2C#N)c(=O)[nH]1,-13,1.97
CC[C@H](C)Oc1cccc2c1cc(C(=O)NCc1ccncc1)n2Cc1ccccc1,2,-0.33
O=C(c1ccc(F)cc1)[C@H]1CCCN(CCC(=O)N2CCOCC2)C1,-6,0.78
Cc1nc(N2[C@@H]3CC[C@H]2CN(C)CC3)c2ccccc2n1,-5,0.61
Oc1cccc(-c2cn(CC3(N4CCOCC4)CCCCC3)nn2)c1,-11,1.38
CN1CCCN(C(=O)Cc2cnn(-c3ccccc3)c2)CC1,10,-1.43
